Results: publication PMC4336329 (PLoS ONE, 2015)
In all, about 310,000 compounds went through this assay and about 14,000 (4.5%) showed an effect of 50% or more. The effect is printed as a negative number. The list shows a part of the results.

The compounds below were run against human ether-à-go-go-related gene (hERG) potassium channel (human, UniProt Q12809) (assay: primary screen, population patch clamp on CHO cells stably expressing hERG).
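Note: peak tail current of the secondary pulse compared with the same well before compound.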

Chain of human ether-à-go-go-related gene (hERG) potassium channel (Q12809 whole entry, looked up): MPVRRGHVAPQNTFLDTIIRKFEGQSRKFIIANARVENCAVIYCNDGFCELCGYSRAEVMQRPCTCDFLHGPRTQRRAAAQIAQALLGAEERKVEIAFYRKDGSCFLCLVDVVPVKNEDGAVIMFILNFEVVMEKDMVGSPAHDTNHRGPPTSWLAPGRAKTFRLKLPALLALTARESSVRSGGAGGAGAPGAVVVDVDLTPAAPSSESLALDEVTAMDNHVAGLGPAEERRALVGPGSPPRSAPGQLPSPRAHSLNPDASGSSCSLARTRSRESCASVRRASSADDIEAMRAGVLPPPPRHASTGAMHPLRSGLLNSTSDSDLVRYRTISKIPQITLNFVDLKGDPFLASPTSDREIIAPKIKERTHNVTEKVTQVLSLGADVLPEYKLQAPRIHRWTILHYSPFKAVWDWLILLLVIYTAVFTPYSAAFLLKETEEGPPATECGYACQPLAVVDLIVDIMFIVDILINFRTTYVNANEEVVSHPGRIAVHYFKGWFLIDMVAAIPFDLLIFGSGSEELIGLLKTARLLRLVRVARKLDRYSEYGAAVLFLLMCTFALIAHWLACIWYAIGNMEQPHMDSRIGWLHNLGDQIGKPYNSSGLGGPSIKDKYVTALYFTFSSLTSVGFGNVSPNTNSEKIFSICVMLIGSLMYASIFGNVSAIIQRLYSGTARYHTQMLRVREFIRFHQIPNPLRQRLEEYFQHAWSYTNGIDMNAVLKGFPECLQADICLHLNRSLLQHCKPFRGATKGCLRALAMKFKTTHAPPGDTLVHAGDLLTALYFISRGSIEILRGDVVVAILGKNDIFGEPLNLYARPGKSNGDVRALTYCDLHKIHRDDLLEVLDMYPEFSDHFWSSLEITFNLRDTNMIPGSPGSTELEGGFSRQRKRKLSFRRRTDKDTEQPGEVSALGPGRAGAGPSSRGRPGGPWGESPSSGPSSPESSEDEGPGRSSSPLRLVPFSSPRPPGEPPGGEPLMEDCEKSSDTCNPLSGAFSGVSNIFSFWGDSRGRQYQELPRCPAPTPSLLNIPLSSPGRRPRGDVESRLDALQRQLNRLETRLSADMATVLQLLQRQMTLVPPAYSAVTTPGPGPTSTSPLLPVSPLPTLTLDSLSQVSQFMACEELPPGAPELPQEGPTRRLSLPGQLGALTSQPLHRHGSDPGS

| SMILES | hERG current change (%, negative = inhibition) at 10uM [%] |
| --- | --- |
| CC(C)OCCCNC(=O)c1c(N)n(Cc2cccs2)c2nc3ccccc3nc12 | -0.278 |
| O=C(NCc1ccc(Cl)cc1)c1ccc(-c2ccccc2C(F)(F)F)o1 | 2.94 |
| CCCc1cc(=O)[nH]c(Nc2ccc3c(c2)OCCO3)n1 | 23.8 |
| COc1ccc2c(c1OC)C(=O)N1C2SC[C@H]1C(=O)NC1CCCCC1 (stereo partly shown) | -4.96 |
| C#Cc1ccc(CN2CCC(N3CCC(C(=O)NCc4ccccn4)CC3)CC2)cc1 | -72.2 |
| Cc1ccc(S(=O)(=O)/N=S(\C)CC2CC2(Cl)Cl)cc1 (stereo not shown) | 21.8 |
| CCc1nnc(NC(=O)C(C)Sc2ccccc2)s1 (stereo not shown) | -13 |
| CCOC(=O)c1cc2c(ccn2-c2ccc(F)cc2)n1CC(=O)N1CCN(C(=O)c2ccco2)CC1 | -26.1 |
| O=C(Nc1ccc(S(=O)(=O)NCc2ccccc2)cc1)c1ccccc1[N+](=O)[O-] | 2.69 |
| CC(=NCc1cccnc1)c1c(O)n(-c2ccc(Cl)cc2)c(=O)[nH]c1=O | 9.17 |
| O=C(Cc1ccccc1)OCC(=O)c1ccccc1 | -3.19 |
| O=C(OCc1csc(-c2ccccc2)n1)c1ccccc1O | 29.6 |
| Cc1ccc(NC(=O)c2ccccc2-c2cc(C)no2)cc1 | -15.7 |
| Cc1ccc(N2CC(C(=O)Nc3ccccc3C(=O)N3CCOCC3)CC2=O)cc1 (stereo not shown) | 14.9 |
| COc1ccccc1Cn1c(=S)[nH]c2ccc(F)cc2c1=O | 17.6 |
| Cc1csc(NC(=O)c2ccoc2C)n1 | -7.66 |
| CC(C)(C)c1ccc(S(=O)(=O)N2CCCC2C(=O)NC2=NCCS2)cc1 (stereo not shown) | 2.21 |
| Cc1nc(NCCc2ccc(S(N)(=O)=O)cc2)c2c3c(sc2n1)CCC3 | 8.64 |
| Cc1ccc(CNC(=O)c2ccc(S(=O)(=O)Nc3c(C)n(C)n(-c4ccccc4)c3=O)cc2)cc1 | -26.6 |
| Cc1[nH]c2ccccc2c1/C=N\NC(=O)c1ccco1 | 11.1 |
| COc1ccc(CCNC(=O)COC(=O)c2ccc[nH]c2=O)cc1 | -0.656 |
| O=C(OCc1cn(-c2ccc(Cl)cc2)nn1)c1ccccc1 | -2.52 |

| SMILES | hERG current change (%, negative = inhibition) at 10uM [%] |
| --- | --- |
| CCOCCc1nnc(NC(=O)C(C)Oc2ccccc2)s1 (stereo not shown) | 8.79 |
| O=C(CSc1nnnn1C1CCCC1)NCc1ccccc1 | -9.3 |
| Cc1c(Cl)cccc1NC(=O)c1cc(-c2ccccc2O)n[nH]1 | -16.8 |
| O=C1CC(c2ccccc2F)c2c(c3ccccc3[nH]c2=O)O1 (stereo not shown) | 22 |
| O=C(CN1C(=O)CCC1=O)Nc1nc2c(F)cc(F)cc2s1 | -14.3 |
| CCc1nn(CCCC(=O)Nc2ccc(C)c(C)c2)c(=O)c2cc3occc3n12 | 4.15 |
| O=C(NCc1ccco1)c1nnc(Cc2ccc(Cl)cc2)o1 | -10.8 |
| CC1(C)C2CCC(C2)C1(C)NC(=O)CNC1CCCCC1.Cl (stereo not shown) | 26.2 |
| CCOc1ccc(/C=N/Nc2ccc(C(F)(F)F)cc2[N+](=O)[O-])cc1O | 9.74 |
| Cc1ccc(C(=O)Oc2ccccc2N2C(=O)C3CCCCC3C2=O)cc1 (stereo not shown) | -14 |
| C=CCOC(=O)C(C#N)c1nc2ccccc2nc1N1CCCC1 (stereo not shown) | 3.62 |
| O=C(NNS(=O)(=O)c1ccccc1[N+](=O)[O-])c1ccncc1 | 10.5 |
| Cc1ccc2nc(-c3ccncc3)cc(C(=O)N3CCOCC3)c2c1 | 0.929 |
| CCNc1nc(CN2CCOCC2)nc2sc3c(c12)CCC3 | -7.54 |
| CCOc1ccccc1N1CCN(C(=S)NCc2ccccc2)CC1 | 3.62 |
| O=C(COC(=O)Cc1cccc(C(F)(F)F)c1)NCC1CCCO1 (stereo not shown) | 1.46 |
| O=C(N/N=C1\C(=O)c2cccc3cccc1c23)c1ccc(O)cc1 | 8.35 |
| COC(=O)c1[nH]nc(C(=O)OC(C)(C)C)c1-c1ccccc1 | -3.47 |
| S=C(Nc1ccccc1)Nc1ccccc1Br | 10.3 |
| CCn1nc(C)c([N+](=O)[O-])c1C(=O)NNC(=O)c1ccccc1Cl | 10.9 |
| Cc1nc2ccccc2c(=O)n1NC(=O)c1ccc(Cl)c(Cl)c1 | 5.63 |
| Cc1cc(NS(=O)(=O)c2ccc(Nc3nc(-c4ccc(C)c(C)c4)cs3)cc2)no1.Cl | -5.46 |

| SMILES | hERG current change (%, negative = inhibition) at 10uM [%] |
| --- | --- |
| CC(C)c1ccc(N(CC(=O)NC2CCCC2)C(=O)CCC(=O)Nc2nccs2)cc1 | 18.4 |
| O=C(O)C1CC=CCC1C(=O)NC12CC3CC(CC(C3)C1)C2 (stereo not shown) | 3.51 |
| Cc1ccc(C(C)C)c(OCC(=O)OCC(=O)NC2CCS(=O)(=O)C2)c1 (stereo not shown) | 0.333 |
| COc1ccc(C(=O)c2oc3ccc(OC)cc3c2N)cc1 | 9.31 |
| FC(F)(F)C1=CC(c2ccccc2)=NCCN1 | 3.86 |
| Cc1ccc(CNC(=O)C2CCN(S(=O)(=O)c3ccc4c(c3)OCCCO4)CC2)cc1 | 2.16 |
| CC(=O)c1ccc(NC(=O)NC2CC(=O)N(c3ccc4c(c3)OCCO4)C2)cc1 (stereo not shown) | 6.57 |
| O=C(O)c1ccc(N=N/C(=N\Nc2ccc(C(=O)O)cc2)c2ccccc2)cc1 | 7.16 |
| CCOC(=O)c1c(C2COc3ccccc3O2)csc1N (stereo not shown) | -23.5 |
| COc1ccc(Cc2nc3ccc(C(=O)N(C)CCCN4CCOCC4)cc3o2)cc1 | 10 |
| CC(C)(C)NC(=O)CN(C(=O)CS(=O)CC(=O)Nc1ccc(F)cc1)c1ccccc1 (stereo not shown) | 5.7 |
| Cc1c(NC(=O)Nc2cc(F)c(F)cc2Cl)c(=O)n(-c2ccccc2)n1C | 8.26 |
| COC(=O)c1c(NC(=O)CN2CCN(Cc3ccc4c(c3)OCO4)CC2)sc(C)c1C.O=C(O)C(=O)O | -28.9 |
| CCOc1ccccc1N1CCN(C(=O)c2ccc(-c3ccc(OC(C)=O)cc3)cc2)CC1 | 10.5 |
| CCCCNC(=O)NS(=O)(=O)c1ccc(NC(=O)C(NC(N)=O)C(C)CC)cc1 (stereo not shown) | 11.7 |
| COc1ccc(/C=C/C2=Nc3ccccc3NC(C)(C)C2)cc1OC | -49.4 |
| O=C(Nc1ccc(NC(=O)c2ccco2)cc1)c1ccc2c(c1)OCCO2 | 3.52 |
| COc1ccc(CCc2nnc(CCC(=O)N(C)Cc3ccncc3C)o2)cc1 | 2.58 |
| CSc1ccccc1OCc1cc(C(=O)N2CCN3CCCC3C2)no1 (stereo not shown) | -3.75 |
| CCOC(=O)C(C)Sc1nc(=O)n2cccc(C)c2n1 (stereo not shown) | -2.64 |
| S=c1[nH]nc(COc2ccccc2)n1/N=C/c1ccc(Cl)cc1 | 22.4 |
| CCc1nn(CC(=O)Nc2cc(C)ccc2C)c(=N)s1.Cl | 6.21 |

| SMILES | hERG current change (%, negative = inhibition) at 10uM [%] |
| --- | --- |
| Cn1c(SCC(=O)Nc2ccc3c(c2)CCC3)nnc1C1CC1 | -18.6 |
| O=C(CCNC(=O)c1ccccc1)NCCc1ccc(Cl)cc1 | 2.41 |
| COc1ccc(/C=N/N=C(\N)c2nonc2N)cc1OC | -0.49 |
| O=C(CSc1nnnn1-c1ccccc1)Nc1ncc(Cc2cc(Cl)ccc2Cl)s1 | 12.9 |
| CCOc1cc(NC(=O)C2CC2)c(OCC)cc1NC(=O)c1cccc(F)c1 | 11.9 |
| O/N=C1/CCCCc2sccc21 | -3.33 |
| Cc1c(Cl)cccc1-n1cnc(=O)c2ccccc21 | -12.3 |
| COc1ccc(OCC(=O)Nc2ccccc2C(=O)NC(C)C)cc1 | 11.9 |
| N/C(=N\OC(=O)COc1ccc2ccccc2c1Br)c1cccnc1 | 12.9 |
| Cc1ccc(S(=O)(=O)N2C(=O)CCC2C(=O)O/N=C(\N)c2ccc([N+](=O)[O-])cc2)cc1 (stereo not shown) | 17.8 |
| CCN(CCCNC(=O)CN(C)S(=O)(=O)c1cccc2nsnc12)c1cccc(C)c1 | -6.79 |
| CC(C)C[C@H](NC(=O)c1[nH]cnc1C(=O)N[C@@H](Cc1ccccc1)C(=O)OCc1ccccc1)C(=O)OCc1ccccc1 | 21.6 |
| Cc1noc(C)c1C(=O)OC(C)C(=O)N1CCc2ccccc21 (stereo not shown) | 4.27 |
| O=C(Nc1ccc(N2CCCCC2)cc1)c1ccccn1 | 28.4 |
| CSc1cccc(N=C2C(=O)Nc3ccccc32)c1 | 2.41 |
| CCOC(=O)c1sc(N)c(C(=O)OCC)c1COC(=O)C1CC(=O)N(Cc2ccco2)C1 (stereo not shown) | -19.3 |
| CC(=O)c1cccc(NC(=O)CCc2nnc3ccc(N4CCN(C)CC4)nn23)c1 | 15.3 |
| CCOc1ccc(C(NC(=O)c2ccco2)c2ccc(OC)c(OC)c2)cc1 (stereo not shown) | -39.9 |
| O=C(CCC1CCCC1)N1CCN(C2CCCC2)CC1.O=C(O)C(=O)O | -46.6 |
| C=CCCC(=O)N1CCC(CCC(=O)NC2CC2)CC1 | 5.17 |
| CN=C(Nc1cc(C)nn1CCC#N)c1ccccc1F | -0.669 |
| CCOC(=O)N1CCN(Cc2nc3c(c(=O)n(C)c(=O)n3C)n2CCC(C)C)CC1 | -31.9 |
